Drawing on PubChem BioAssay AID1346428 (National Center for Advancing Translational Sciences (NCATS), 2018), this text covers activation for 85 compounds.

Several values for one entry are separate records, joined by “and”; a condition that tells them apart may be missing. Equal entries are not always repeated. Out of some 48,000 compounds screened, about 1,200 (2.5%) were called active. Not shown: some 2% with an inconclusive outcome.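 The calls were made as follows: active = activation of at least 60% and not above a set upper limit (about 1 call in 100 departs from these limits); inconclusive = activation of 40% to 60%, or above that upper limit; inactive = activation under 40%.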 The list shows a part of the results.

Sequence of UniProt O75388 (O75388 whole entry, looked up): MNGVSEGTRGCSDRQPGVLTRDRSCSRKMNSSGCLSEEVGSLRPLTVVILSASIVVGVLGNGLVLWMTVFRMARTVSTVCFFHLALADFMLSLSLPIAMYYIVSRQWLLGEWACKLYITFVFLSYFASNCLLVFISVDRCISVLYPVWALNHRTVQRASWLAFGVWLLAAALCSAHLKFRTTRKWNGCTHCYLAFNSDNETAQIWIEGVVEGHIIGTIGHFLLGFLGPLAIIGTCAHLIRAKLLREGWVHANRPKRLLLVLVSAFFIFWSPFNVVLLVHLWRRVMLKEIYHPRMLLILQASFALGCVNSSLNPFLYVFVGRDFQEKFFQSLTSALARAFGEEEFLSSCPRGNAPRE

The target of this assay is Probable G-protein coupled receptor 32 (Homo sapiens) (UniProt O75388). Put plainly: qHTS for Agonists of Human Resolvin D1 Receptor DRV1. Also: 0% is about no effect. The settings on record: CHO-K1 GPR32 beta-arrestin PathHunter luminescence, 90 min; at 76.9 µM; active compounds read high; zero percent set by DMSO-only wells. The essentials:
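PathHunter beta-arrestin recruitment in CHO-K1 cells stably expressing ProLink-tagged GPR32. Cells were exposed to compound for 90 min at 37 C, then chemiluminescence was read after 1 h detection at ambient temperature; DMSO served as basal control.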
Regarding `COc1ccc(NC(=O)CSc2nc(-c3ccco3)cc(C(F)(F)F)n2)cc1OC`, the activation was inactive: 19.8%.
As to `CCOc1ccc(N(CC)S(=O)(=O)c2cc(Br)cc3c2N(C(C)=O)C(C)C3)cc1` (stereo not given), the activation was inactive: 3.59%.
Turning to `Cc1cccc(NC(=O)CSc2nccn2Cc2ccc(F)cc2)c1C`, the activation is inactive: -9.56%.
In the case of `CCCCN(C)CCCNC(=O)Cn1ncc2c3ccccc3n(Cc3ccccc3)c2c1=O`, the activation is inactive: 18.7%.
Consider `Cc1ccccc1NC(=O)c1ccc2c(c1)c(C)c(C)n2Cc1ccccc1`, for which the activation is inactive: -12.5%.
As for `COc1ccc(S(=O)(=O)N2CCCN(CC(=O)Nc3ccc(NC(C)=O)cc3)CC2)cc1`, the activation was inactive: 3.5%.
`COCc1nc2ccccc2n1CCOc1cccc(C)c1`: the activation is inactive: -0.0427%.
With `O=C(CN1N=C(c2ccc(Cl)cc2)CCC1=O)NCCc1ccc(Cl)cc1`, the activation was inactive: -5.12%.
Turning to `CC(=O)c1cccc(NC(=O)c2oc3c(c2C)-c2nn(Cc4ccc(Cl)cc4)cc2CC3)c1`, the activation is inactive: -8.33%.
Next, `CCOc1ccccc1CN1CCN(S(=O)(=O)c2ccccc2)CC1`: inactive: -29.8%; `CCOC(=O)c1c(-c2ccccc2)oc2ccc(NS(=O)(=O)c3cc(C)c(C)cc3C)cc12`: inactive: -0.978%; `Cc1cc(O)c2c(c1)C(=O)c1cc(O)cc(O)c1C2=O`: inactive: -46.7%.
Take `Cc1ccc(C(=O)Nc2cc3c(cc2C)n(C)c(=O)c(=O)n3C)cc1`: the activation was inactive: 3.61%.
Turning to `COc1ccccc1NC(=O)CSC1=Nc2ccccc2C2=NC(CC(=O)NCc3ccco3)C(=O)N12` (stereo not given), the activation is inactive: -4.69%.
Consider `Cc1cccc(CNC(=O)CCn2c(=O)c3cccn3c3ccc(F)cc32)c1`, for which the activation is inactive: -8.85%.
Turning to `CCOc1ccc(CNC(=O)C2Cc3ccccc3N2C(=O)CC)cc1OC` (stereo not given), the activation is inactive: -13.4%.
`COc1ccc(NC(=O)c2oc3ccc(S(=O)(=O)N4CCCCC4)cc3c2C)cc1`: the activation is inactive: 14.6%.
For the compound `CCCc1nn2c(=O)cc(COC(=O)c3ccccc3NC(=O)COc3ccccc3F)nc2s1`, the activation is inactive: -6.84%.
Under `CCc1ccc(-n2nc(C)c3c(C)cc(=O)n(Cc4nc(-c5ccccc5)oc4C)c32)cc1` stands inactive: -18.9%.
Turning to `Cc1ccc(NC(=O)CN2C(=O)CCc3cc(S(=O)(=O)N4CCOCC4)ccc32)cc1F`, the activation was inactive: 6.98%.
Under `COc1ccc(OC)c(CNC(=O)c2ccc(Sc3ccc(C)cc3)c(N)c2)c1` stands inactive: -14.5%.
Take `CCCOC(=O)c1c(NC(=O)c2nc3ncccn3n2)sc(C(N)=O)c1C`: the activation was inactive: 18%.
Under `Cc1nc2c(C(=O)NCCCN(CC(C)C)CC(C)C)cnn2c(C)c1Cc1c(F)cccc1Cl` stands inactive: -10%; under `Cc1ccccc1CNC(=O)CCCn1c(=O)c2cccn2c2cccnc21`, inactive: -16.7%; under `CNc1ncnc2c1cnn2-c1ccc(C)c(C)c1`, inactive: 39.9%.
Under `Cc1cccc(NC(=O)c2ccc(-n3cnc4cccnc43)cc2)c1C` stands inactive: -5.99%.
Under `Cc1ccc(N2CC(NC(=O)c3cccs3)CC2=O)cc1C` (stereo not given) stands inactive: 4.74%; under `Oc1ccccc1-c1nc(/C=C/c2ccccc2Cl)nn1-c1ccccc1`, inactive: -10.7%; under `Fc1ccc([C@@H]2CCNC[C@H]2COc2ccc3c(c2)OCO3)cc1`, inactive: 2.87% and inactive: -19.2%.
For `COc1cc(NC(=O)c2cccc3c2C(=O)N(C2CCCCC2)C3)cc(OC)c1OC`, the activation is inactive: -32.2%.
For `CCc1ccc(C(=O)c2cn(CC(=O)Nc3ccc4c(c3)OCO4)c3ccc(OC)cc3c2=O)cc1`, the activation is inactive: 35.8%.
As to `Cn1c(C(=O)Nc2cccc(C(F)(F)F)c2)cc2c(=O)n3ccccc3nc21`, the activation is inactive: 4.29%.
Under `COc1ccc(OC)c(CNC(=O)C(C)n2c(C)c3cnn(-c4ccccc4)c(=O)c3c2C)c1` (stereo not given) stands inactive: -22.3%.
With `CCOc1ccc(NC(=O)C2CCC(CNS(=O)(=O)c3ccc(Br)s3)CC2)cc1` (stereo not given), the activation was inactive: 38.7%.
`N.N.O=C(O)C1(C(=O)O)CCC1.[Pt]`: the activation was inactive: -4.23%.
`CCOc1cc(/C=C(\C#N)C(=O)NCC2CCCO2)ccc1O` (stereo not given): the activation was inactive: -30.9%.
Next, `Cc1ccccc1OCc1ccc(-c2nc(C#N)c(NCc3cccnc3)o2)o1`: inactive: 5.29%; `CC1=C(c2ccc(C)c(C)c2)S(=O)(=O)N=C1N1CCC(C(=O)N2CCC(C)CC2)CC1`: inactive: -7.31%.
For `O=C(CN1C(=O)COc2ccc(Cl)cc21)Nc1ccc(F)cc1`, the activation is inactive: -4.68%.
For `CCN(C(=O)c1nn(-c2ccc(OC)c(Cl)c2)c(=O)c2c1c1ccccc1n2C)c1cccc(C(F)(F)F)c1`, the activation was inactive: -9.56%.
For the compound `CCCOc1cccc(C(=O)Nc2cccc3cccnc23)c1`, the activation is inactive: -6.07%.
With `O=C(OCc1cc(=O)n2nc(-c3cccs3)sc2n1)c1ccc(Cl)cc1`, the activation is inactive: 3.73%.
For `CC(C)OCCCNC(=O)c1ccc(CSc2nc3cccnc3n2Cc2ccccc2)cc1`, the activation is inactive: -5.87%.
Take `COc1ccc(-c2nc3ccc(NS(=O)(=O)c4ccc(C)cc4)cc3o2)cc1`: the activation is inactive: 7.44%.
Regarding `O=c1[nH]cnc2c1ncn2[C@H]1CC[C@@H](CO)O1`, the activation is inactive: -11.3%.
As for `COC(=O)c1c(SCC(=O)Nc2cc(OC)cc(OC)c2)[nH]c2ccc(C)cc2c1=O`, the activation was inactive: -9.91%.
With `Cc1nc2sccn2c(=O)c1S(=O)(=O)Nc1ccc(N2CCOCC2)c(Cl)c1`, the activation is inactive: 15.9%.
`Cc1ccc(NC(=O)Cn2ncn3c(cc4ccccc43)c2=O)cc1F`: the activation is inactive: 5.73%.
As to `CCC1=C(c2ccc(C)cc2)S(=O)(=O)N=C1N1CCC(C(=O)Nc2ccccc2F)CC1`, the activation is inactive: -9.14%.
`Cc1ccc(Cn2c(C(=O)NCc3ccccc3Cl)cc3sccc32)cc1`: the activation is inactive: -14.1%.
Take `Cc1nc2nc(CNC(=O)OC(C)(C)C)nn2c(C)c1CCC(=O)NCc1ccc(F)cc1`: the activation is inactive: -6.93%.
For the compound `CCOc1ccc(CNCc2c(C(=O)O)c(C)n(Cc3cccc(OC)c3)c2C)cc1OC`, the activation was inactive: 14.1%.
Regarding `Cc1cccc(NC(=O)CSc2nnc3[nH]c(=O)cc(-c4ccccc4)n23)c1C`, the activation was inactive: -19.6%.
As to `Cc1cc(CN2CCN(c3ccccc3F)CC2)cs1`, the activation was active: 102%.
On to `CCC1CCC(C(=O)NC(C(=O)Nc2cccc(OC)c2)C(C)C)CC1` (stereo not given), for which the activation was inactive: -0.91%.
Regarding `O=C(CCC(=O)N1CC2CCCN2c2ccccc21)NCc1ccc(Cl)cc1` (stereo not given), the activation is inactive: 24.2%.
Consider `COc1ccc(C2Nc3ccccc3-c3cc(C)nn32)cc1OC` (stereo not given), for which the activation is inactive: -26%.
Next, `COC(=O)c1cc2sc(C)cc2n1Cc1cccc(OC)c1`: inactive: -29.8%; `COc1ccc(CNC(=O)CCCN2C(=O)CSc3c2c(C)nn3-c2ccccc2)cc1`: inactive: -20.4%; `CCOC(=O)c1c(C)[nH]c(C)c1S(=O)(=O)N1CCCC(C(=O)NCc2cccc(C)c2)C1` (stereo not given): inactive: -15.1%.
Turning to `Cc1cccn2c(=O)c(C(=O)NCc3ccc(F)cc3)c(O)nc12`, the activation is inactive: 1.61%.
For the compound `CCN(CC)CCNC(=O)C1CCN(c2nn3cc(-c4ccc(F)cc4)nc3s2)CC1`, the activation was inactive: -4.96%.
In the case of `CCOC(=O)c1c(-c2ccc(OC)cc2)oc2ccc(OCc3ccccc3C)cc12`, the activation is inactive: -3.71%.
With `CCOc1cc(C(=O)Nc2cc3c(cc2N2CCOCC2)n(C)c(=O)n3C)cc(OCC)c1OCC`, the activation is inactive: 8.17%.
Consider `FC1(F)C(F)(F)C(F)(F)C2(F)C(F)(F)C(F)(F)C(F)(F)C(F)(F)C2(F)C1(F)F` (stereo not given), for which the activation is inactive: 6.37%.
Under `O=c1cc(-c2ccccc2)nc(SCc2nc(-c3ccccc3Cl)no2)[nH]1` stands inactive: 8%.
For the compound `COc1ccc(CC(=O)NCC(c2cccs2)S(=O)(=O)c2ccc(C)cc2)cc1` (stereo not given), the activation is inactive: 9.54%.
Next, `COc1cccc(CNC(=O)Cc2c(C(=O)O)c(C)cn2C)c1`: inactive: -2.56%; `CCOC(=O)c1c(NC(=O)c2cc(-c3cccc(OC)c3)on2)sc2c1CCCC2`: inactive: -3%.
Take `O=C(NCc1cccs1)c1ccc(CSc2nc3cccnc3n2Cc2ccccc2F)cc1`: the activation was inactive: -43.2%.
Under `CC(C)c1ccc(NC(=O)CN2C(=O)COc3ccc(S(=O)(=O)N4CCCCCC4)cc32)cc1` stands inactive: -19%; under `CCc1ccc(NC(=O)Cn2c(=O)n(Cc3ccco3)c(=O)c3oc4ccccc4c32)cc1`, inactive: 4.68%.
As for `O=C(NCc1cccc(Cl)c1)c1ccc2nc(N3CCCCC3)sc2c1`, the activation was inactive: -9.46%.
Consider `COc1ccccc1N1CCN(c2ncnc3onc(-c4cccc(Cl)c4)c23)CC1`, for which the activation was inactive: -7.83%.
Next, `CCOC(=O)c1c(C)n(-c2ccccc2)c2ccc(OC(=O)c3cccc(OC)c3OC)cc12`: inactive: -5.24%; `Cc1cc(C)c(NC(=O)Cn2cnc3c(oc4ccccc43)c2=O)c(C)c1`: inactive: 0.733%; `Cc1oc(-c2ccccc2Cl)nc1CSc1nc2ncccc2[nH]1`: inactive: -3.53%.
As to `COc1ccc(S(=O)(=O)Nc2c(C)nc3nc(C)[nH]n3c2=O)cc1`, the activation is inactive: 9.28%.
Turning to `CCc1cccc(N2C(=O)CSC23C(=O)Nc2ccccc23)c1` (stereo not given), the activation is inactive: -5.98%.
Turning to `CCN(CC)C(=O)c1ccc(Nc2nnc(-c3ccc(C)c(S(=O)(=O)NC)c3)c3ccccc23)cc1`, the activation is inactive: -7.24%.
Regarding `CCCN(C(=O)c1cc2c(=O)[nH]c3ccc(C)cc3c2s1)c1ccc(CC)cc1`, the activation was inactive: -12.4%.
Under `CCc1nnc2c(N3CCN(c4cc(Cl)ccc4C)CC3)nc3ccccc3n12` stands inactive: -11.8%; under `CCOC(=O)C1CCCN(C(=O)c2nn(-c3ccc(C)cc3)c(=O)n(C)c2=O)C1` (stereo not given), inactive: -5.85%; under `CCOc1ccc(CNS(=O)(=O)c2ccc3c(c2)CCCN3C(C)=O)cc1OC`, inactive: 12.1%.
Turning to `CCCC(=O)OCOC(=O)C1=C(C)NC(C)=C(C(=O)OC)C1c1cccc(Cl)c1Cl` (stereo not given), the activation is inactive: 34.9%.
